According to the supplement of paper PMC12217912:
The list shows a part of the results. Sequences were assembled here from the parent chain. Inactive controls read about 0.05.

B1: TEV protease; numbered along this chain (parent)
chain: MGESLFKGPRDYNPISSSICHLTNESDGHTTSLYGIGFGPFIITNKHLFRRNNGTLVVQSLHGVFKVKDTTTLQQHLVDGRDMIIIRMPKDFPPFPQKLKFREPQREERICLVTTNFQTKSMSSMVSDTSCTFPSGDGIFWKHWIQTKDGQCGSPLVSTRDGFIVGIHSASNFTNTNNYFTSVPKNFMELLTNQEAQQWVSGWRLNADSVLWGGHKVFMVKPEEPFQPVKEATQL

Variants of: B1
Test: raw area under fraction-flipped curve 0-4 h after induction (AUC4h, not background-subtracted), DNA-recorder readout of cleavage of the substrate (dimensionless); higher = more cleavage of the substrate by the protease variant
Settings: temperature: 34 °C; time window: 0-4 h after rhamnose induction
Description: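 In vivo DNA recorder in E. coli TOP10(DE3) ΔrhaA at 34 °C. Each TEVp single-site mutant (parent TEVp 0) is paired with a single-site variant of the 7-mer TEVs (canonical ENLYFQ|S). The substrate sits between flexible linkers in a Bxb1-sfGFP-TEVs-SsrA fusion, so cleavage stabilises Bxb1 and speeds flipping of a recombination array, read by NGS. The value is the raw area under the fraction-flipped curve over 0-4 h after rhamnose induction (AUC4h), with ≥20 reads per time point. It is not background-subtracted; inactive controls average about 0.047.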
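Note: Bxb1 expression induced with 0.2% (w/v) L-rhamnose at OD600 near 0.5, cultures sampled hourly, flipped fraction per protease–substrate barcode pair counted by paired-end Illumina sequencing.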

| Variant | area with substrate ENLYFQA | area with substrate ENLYFQD | area with substrate ENLYFQF | area with substrate ENLYFQG | area with substrate ENLYFQH | area with substrate ENLYFQI | area with substrate ENLYFQK | area with substrate ENLYFQL | area with substrate ENLYFQM | area with substrate ENLYFQN | area with substrate ENLYFQP | area with substrate ENLYFQQ | area with substrate ENLYFQR | area with substrate ENLYFQS | area with substrate ENLYFQT | area with substrate ENLYFQV | area with substrate ENLYFQW | area with substrate ENLYFQY | area with substrate ENLYFQC | area with substrate ENLYFQE |
| --- | --- | --- | --- | --- | --- | --- | --- | --- | --- | --- | --- | --- | --- | --- | --- | --- | --- | --- | --- | --- |
| E223W | 0.0583 | 0.0722 | 0.0376 | 0.0847 | 0.0747 | 0.0568 | 0.0621 | 0.0485 | 0.0758 | 0.0739 | 0.0693 | 0.0895 | 0.0547 | 0.0907 | 0.0709 | 0.0535 | 0.0981 | 0.0716 | – | – |
| A207H | 0.0881 | – | 0.0633 | – | – | – | – | – | – | – | – | – | 0.0517 | 0.0958 | – | 0.0602 | – | – | 0.106 | – |
| R10T | 0.0859 | – | – | 0.111 | – | 0.0655 | 0.0686 | 0.0659 | 0.0754 | 0.0757 | – | – | 0.0644 | 0.103 | 0.0597 | 0.0651 | 0.0976 | – | – | – |
| V67P | 0.0405 | – | – | 0.0418 | – | 0.0412 | – | 0.0453 | 0.0359 | 0.0415 | – | 0.0417 | 0.0387 | 0.0508 | 0.0279 | – | 0.0456 | – | 0.0633 | – |
| S127W | 0.133 | – | 0.0715 | – | – | – | 0.0665 | 0.066 | 0.123 | 0.0694 | 0.0654 | – | 0.0501 | 0.112 | 0.0577 | 0.0649 | 0.0602 | – | 0.118 | 0.0627 |
| V113R | 0.0382 | – | 0.0622 | 0.0682 | 0.0637 | 0.0605 | 0.0649 | 0.0472 | 0.0493 | 0.0681 | 0.0665 | – | 0.0659 | 0.0723 | 0.0616 | – | 0.0609 | 0.0611 | 0.084 | – |
| N178E | 0.0656 | – | – | 0.0556 | 0.0584 | 0.038 | 0.0549 | 0.0435 | – | – | 0.0811 | – | – | 0.0686 | – | – | 0.0738 | – | 0.0795 | – |
| R10F | 0.0932 | 0.0658 | – | – | 0.0651 | 0.052 | 0.0595 | 0.0498 | 0.0846 | 0.0804 | 0.0576 | – | 0.0577 | 0.0954 | 0.053 | 0.0599 | 0.0628 | – | 0.113 | – |
| R87C | 0.103 | – | – | 0.108 | 0.119 | – | 0.0658 | 0.0638 | 0.0769 | – | 0.0417 | – | – | 0.0996 | 0.0578 | 0.046 | – | 0.0706 | – | – |
| K142A | 0.0815 | – | – | 0.102 | 0.0734 | – | 0.0263 | – | 0.0842 | 0.0681 | 0.0586 | 0.0837 | – | 0.0878 | – | – | 0.0726 | – | 0.103 | – |
| G214P | 0.0673 | 0.0438 | – | 0.064 | – | – | 0.0565 | – | 0.0614 | – | – | – | 0.0684 | 0.0681 | – | 0.0298 | – | 0.0556 | 0.0873 | – |
| M122R | 0.104 | – | 0.0985 | – | – | – | 0.0599 | 0.0958 | 0.166 | – | – | – | – | 0.113 | 0.0811 | 0.0617 | – | – | – | – |
| L61R | 0.12 | 0.0399 | 0.0824 | 0.127 | 0.068 | 0.0745 | – | 0.0792 | 0.105 | 0.083 | – | 0.077 | 0.0506 | 0.109 | 0.0739 | – | 0.0641 | – | 0.123 | 0.0599 |
| M125P | 0.113 | – | – | 0.119 | 0.0869 | 0.0617 | – | 0.0574 | 0.0866 | 0.0895 | 0.0635 | – | – | 0.109 | – | – | 0.0623 | 0.0833 | – | – |
